Data from a collection of fitness landscapes (doi:10.1016/j.celrep.2020.107928).
The full ranking holds about 81,000 sequences; the median of “one-hybrid fitness for binding NBS DNA” is about -0.1, and the highest 2% start at about 0.36. The list shows a part of the results.

B1: Caulobacter ParB omega fusion; a variant is named by its letters at X, in order, B8GW30 (parent)
chain: MESVVVGEPGMSEGRRGLGRGLSALLGEVDAAPAQAPGEQLGGSREAPIEILQRNPDQPRRTFREEDLEDLSNSIREKGVLQPILVRPSPDTAGEYQIVAGERAWRAAQRAGLKTVPIMVRELDDLAVLEIGIIENVQRADLNVLEEALSYKVLMEKFERTQENIAQTIGKSXSHVANXMRLLXLPDEVQSYLVSGELTAXHARAIAAAADPVALAKQIIEGGLSVRETEALARKAPNLSAGKSKGGRPPRVKDTDTQALESDLSSVLGLDVSIDHRGSTGTLTITYATLEQLDDLCNRLTRGI

Variants of: B1
Assay: one-hybrid fitness for binding NBS DNA (the Noc-binding site; scaled: cognate 1, non-cognate 0); higher = stronger binding
Conditions: with NBS DNA site
Method in brief: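 In E. coli USO, a HIS3 reporter with its site placed 19 bp from the promoter was used to select Caulobacter ParB variants randomised at four specificity codons. Growth lasted 48 hours at 37°C on histidine-free M9 containing 0.1 mM IPTG and 5 mM 3-AT. Fitness was taken as the log change in variant-to-wild-type read ratio from Illumina sequencing of pre- and post-selection plasmids, rescaled between the non-cognate and cognate sites.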

| Variant | one-hybrid fitness for binding NBS DNA |
| --- | --- |
| LEQL | ≤ 0.2 |
| LDVG | ≤ 0.2 |
| DDNT | ≤ 0.2 |
| RIME | ≤ 0.2 |
| RLHW | ≤ 0.2 |
| VRVM | ≤ 0.2 |
| YRWC | ≤ 0.2 |
| MIEG | ≤ 0.2 |
| ERSA | ≤ 0.2 |
| CCFG | ≤ 0.2 |
| SWYR | ≤ 0.2 |
| VHSR | ≤ 0.2 |
| QLGI | ≤ 0.2 |
| QRAP | 0.264 |
| FMVL | ≤ 0.2 |
| MLKE | ≤ 0.2 |
| KRTQ | ≤ 0.2 |
| FVDL | ≤ 0.2 |
| AEDR | ≤ 0.2 |
| SPLN | ≤ 0.2 |
| VPER | ≤ 0.2 |
| YTSC | ≤ 0.2 |
| RMVC | ≤ 0.2 |
| PNRN | ≤ 0.2 |
| HWSK | ≤ 0.2 |
| SYDC | ≤ 0.2 |

| Variant | one-hybrid fitness for binding NBS DNA |
| --- | --- |
| PNGT | ≤ 0.2 |
| ERDV | ≤ 0.2 |
| HCFT | ≤ 0.2 |
| TSKW | ≤ 0.2 |
| IVHR | ≤ 0.2 |
| ENPA | ≤ 0.2 |
| IRRA | 0.229 |
| SNGL | ≤ 0.2 |
| SRDD | ≤ 0.2 |
| KKRC | ≤ 0.2 |
| GGVI | ≤ 0.2 |
| RRTH | 0.509 |
| GLIS | ≤ 0.2 |
| ATVR | ≤ 0.2 |
| RIPT | ≤ 0.2 |
| TVSD | ≤ 0.2 |
| QCQP | ≤ 0.2 |
| WSNA | ≤ 0.2 |
| VEFL | ≤ 0.2 |
| HPTL | ≤ 0.2 |
| ATCK | ≤ 0.2 |
| DGAC | ≤ 0.2 |
| AMHR | ≤ 0.2 |
| ELPS | ≤ 0.2 |
| DEDC | ≤ 0.2 |
| AAGN | ≤ 0.2 |

| Variant | one-hybrid fitness for binding NBS DNA |
| --- | --- |
| MQDW | ≤ 0.2 |
| GFRC | ≤ 0.2 |
| TQPN | ≤ 0.2 |
| PSKR | ≤ 0.2 |
| QTSN | 0.221 |
| HTPS | ≤ 0.2 |
| YRPF | ≤ 0.2 |
| TPNI | ≤ 0.2 |
| ANLP | ≤ 0.2 |
| LAKR | ≤ 0.2 |
| TSKS | ≤ 0.2 |
| NPDA | ≤ 0.2 |
| CYQR | ≤ 0.2 |
| SCAN | ≤ 0.2 |
| SPLD | ≤ 0.2 |
| HLLN | ≤ 0.2 |
| LTFS | ≤ 0.2 |
| RWFS | ≤ 0.2 |
| QRGL | 0.295 |
| TGTW | ≤ 0.2 |
| TCPW | ≤ 0.2 |
| HIYS | ≤ 0.2 |
| RYEH | ≤ 0.2 |
| GRKW | ≤ 0.2 |
| QESV | ≤ 0.2 |
| QWTG | ≤ 0.2 |

| Variant | one-hybrid fitness for binding NBS DNA |
| --- | --- |
| WLRI | ≤ 0.2 |
| LESA | ≤ 0.2 |
| HDRS | ≤ 0.2 |
| IHAR | ≤ 0.2 |
| QSYH | ≤ 0.2 |
| QSEI | ≤ 0.2 |
| RALH | ≤ 0.2 |
| QVIS | ≤ 0.2 |
| SLWG | ≤ 0.2 |
| VQIT | ≤ 0.2 |
| CMLD | ≤ 0.2 |
| SKSD | ≤ 0.2 |
| SPDI | ≤ 0.2 |
| LHWS | ≤ 0.2 |
| SPFS | ≤ 0.2 |
| ACCI | ≤ 0.2 |
| PQPM | ≤ 0.2 |
| RYKG | ≤ 0.2 |
| TVPM | ≤ 0.2 |
| QHNQ | ≤ 0.2 |
| RPLT | ≤ 0.2 |
| QRAW | 0.294 |
| VGLN | ≤ 0.2 |
| QSAM | ≤ 0.2 |
| HTHE | ≤ 0.2 |
| EGMC | ≤ 0.2 |

| Variant | one-hybrid fitness for binding NBS DNA |
| --- | --- |
| VYMS | ≤ 0.2 |
| WQHT | ≤ 0.2 |
| RSQC | ≤ 0.2 |
| GRSA | ≤ 0.2 |
| ELPV | ≤ 0.2 |
| GEQC | ≤ 0.2 |
| QGRL | ≤ 0.2 |
| GPGC | ≤ 0.2 |
| TYQL | ≤ 0.2 |
| AHYT | ≤ 0.2 |
| RLHR | 0.491 |
| TPDV | ≤ 0.2 |
| AWMN | ≤ 0.2 |
| QKML | ≤ 0.2 |
| KILC | ≤ 0.2 |
| LMFR | ≤ 0.2 |
| TRCY | ≤ 0.2 |
| DVDG | ≤ 0.2 |
| RHDE | ≤ 0.2 |
| SFSR | ≤ 0.2 |
| WRLG | ≤ 0.2 |
| RPFF | ≤ 0.2 |
| RTIQ | ≤ 0.2 |
| GFYM | ≤ 0.2 |
| YHLF | ≤ 0.2 |
| RLYH | ≤ 0.2 |

| Variant | one-hybrid fitness for binding NBS DNA |
| --- | --- |
| AMGR | ≤ 0.2 |
| PYVT | ≤ 0.2 |
| PRTD | ≤ 0.2 |
| SPNL | ≤ 0.2 |
| PVYT | ≤ 0.2 |
| RLYR | 0.385 |
| HRFT | ≤ 0.2 |
| QVQM | ≤ 0.2 |
| VNSF | ≤ 0.2 |
| WIRC | ≤ 0.2 |
| IWAR | ≤ 0.2 |
| SYLP | ≤ 0.2 |
| LQKC | ≤ 0.2 |
| VLNV | ≤ 0.2 |
| LFRG | ≤ 0.2 |
| RTGS | 0.491 |
| SRYV | ≤ 0.2 |
| KQTG | ≤ 0.2 |
| CLVK | ≤ 0.2 |
| QRAG | 0.37 |
| QPAV | ≤ 0.2 |
| PSPY | ≤ 0.2 |
| ITPT | ≤ 0.2 |
